Survival data for 57 compounds are collected here from PubChem BioAssay AID463173 (ICCB-Longwood Screening Facility, Harvard Medical School, 2010).

Molecules are shown by their SMILES. The campaign covered roughly 52,000 compounds. About 1,700 (3.3%) were called active. Cut-off read from the data, not from the text of the source: active = survival mostly below about 52% (no sharp cut-off); inactive = mostly above about 56%. The list shows a part of the results.

For this assay, the system named is Wild type. In words: growth inhibition of S. aureus wild type versus tarO mutant, primary screen, teichoic acid synthesis inhibitors, RN4220, OD600 (AID 463173). To be noted: S. aureus RN4220 wild type/DeltatarO growth, OD600, 18 h, active compounds read low, screened at 18.75 µg/mL (by protocol).
Take `COc1ccc(NC(=O)C2CCCN(S(=O)(=O)c3cccs3)C2)cc1` (configuration not stated): the survival was inactive: 88%. Turning to `CC1Cc2cc(S(=O)(=O)N(C)c3ccc(Br)cc3)ccc2N1C(=O)C1CC1` (configuration not stated), the survival was inactive: 106%. As to `Fc1ccc(Cc2cn3cc(-c4ccc(Cl)cc4)nc3s2)cc1`, the survival is inactive: 85%. As to `N#C/C(=C/c1ccc(Cl)cc1Cl)c1nc2ccccc2c(=O)[nH]1`, the survival was inactive: 75%. In the case of `O=c1[nH]c(O)c(C=NCCCn2ccnc2)c(=O)[nH]1`, the survival is inactive: 106%.

Turning to `COc1ccc(CNC(=O)C2CCN(S(=O)(=O)c3ccc(C)cc3)CC2)cc1`, the survival is inactive: 78%.

With `CCN1CCN(C(c2ccccc2)c2c(O)cc(C)n(Cc3ccco3)c2=O)CC1` (configuration not stated), the survival was inactive: 110%. For `O=C(NC1CCS(=O)(=O)C1)Sc1ccccc1` (configuration not stated), the survival was inactive: 115%. `c1ccc(CCn2nnnc2C(c2cccnc2)N2CCCCC2)cc1` (configuration not stated): the survival was inactive: 114%. The result for `O=C(Nc1ccccc1F)c1ccc(-c2ccccc2)s1` reads inactive: 84%; that for `COC(=O)c1c(N)n(-c2ccc(OC)c(Cl)c2)c2nc3ccccc3nc12`, inactive: 74%; that for `COc1ccc(-c2nnc3c4ccccc4c(-c4ccccc4)nn23)cc1`, inactive: 66%. To `CCOc1ccc(CCNC(=O)c2cccc(-n3c(C)nc4cccnc43)c2)cc1` belongs inactive: 138%. To `O=C(COc1ccc(Cl)cc1)NCCc1csc(-c2ccc(F)cc2)n1` belongs inactive: 73%; to `CCN(CC)C(=O)c1sc2c(c1C)c(=O)n(-c1ccc(Cl)c(Cl)c1)c(=O)n2CC(=O)Nc1cccc(OC)c1`, inactive: 82%; to `CCOC(=O)c1nnn(CC(=O)NC(=O)Nc2cccc(CC)c2)c1C(=O)OCC`, inactive: 70%. For the compound `CC(=O)c1cccc(NC(=O)c2nc3ccccc3nc2N2CCCCC2)c1`, the survival is inactive: 74%. On to `Cc1ccc(Cl)cc1N1CCN(C(=O)C2CCN(S(=O)(=O)c3ccc4c(c3)oc(=O)n4C)CC2)CC1`, for which the survival is inactive: 66%.

Take `Nc1ccc2nc(CN3CCOCC3)[nH]c2c1`: the survival was inactive: 98%. The result for `O=C(Nc1ccc(F)cc1Cl)C1Cc2ccccc2N1C(=O)c1ccccc1` (configuration not stated) reads inactive: 94%; that for `O=C(CCn1nc(-c2ccc(Cl)cc2)c2ccccc2c1=O)Nc1ccc(OC(F)(F)F)cc1`, inactive: 139%; that for `COc1ccc(OC)c(CNC(=O)C2CCN(c3ncnc4c3nc3n4CCCCC3)CC2)c1`, inactive: 81%. To `CN1C(=O)C2(c3ccccc31)N(c1ccc(F)c(Cl)c1)C(=O)CS2(=O)=O` (configuration not stated) belongs inactive: 81%; to `COC(=O)c1cc(S(=O)(=O)NCC2CCN(Cc3ccccc3F)CC2)c[nH]1`, inactive: 72%; to `Cc1cc(C)c2c(n1)nn1c(C)c(CCC(=O)NCc3ccc(Cl)cc3)c(C)nc21`, inactive: 80%. The result for `Cc1ccc(C2=NN(CC(=O)NCCc3ccc(Cl)cc3)C(=O)CC2)cc1` reads inactive: 121%; that for `CCC(=O)N1CCc2cc(S(=O)(=O)CCC(=O)N3CCN(c4ccc(C(C)=O)cc4)CC3)ccc21`, inactive: 89%. In the case of `CCOc1ccc(-c2cn3c(n2)sc2cc(C(=O)NCCc4ccc(OC)c(OC)c4)ccc23)cc1`, the survival was inactive: 69%. Turning to `Cc1ccc(Cl)cc1NC(=O)CC1SC(N)=NC1=O` (configuration not stated), the survival is inactive: 105%. The result for `Cc1cccc(NC(=O)N2CCC(n3c(C)nc4cccnc43)CC2)c1` reads inactive: 85%; that for `COc1ccc(CCNC(=O)CCn2c(=O)c3cccn3c3cccnc32)c(OC)c1OC`, inactive: 99%. To `CCOC(=O)N1CCC(NC(=O)c2ccc3c(c2)N(Cc2cc(C)ccc2C)C(=O)c2ccccc2S3=O)CC1` (configuration not stated) belongs inactive: 80%; to `CCC(C)(C)NC(=O)Cn1c(=O)ccc2cc(S(=O)(=O)N3CCC(C)CC3)ccc21`, inactive: 101%; to `O=C(CSc1nccn1Cc1ccccc1)Nc1ccc2c(c1)OCO2`, inactive: 138%. The result for `O=C1C=CC(=O)C(c2ccc(Cl)cc2)=C1` reads inactive: 55%; that for `CCOc1cc(C(=O)NCCc2csc(-c3ccc(C)cc3)n2)cc(OCC)c1OCC`, inactive: 76%.

Turning to `Cc1ccc(S(=O)(=O)/N=C(\N)Nc2nc3ccccc3o2)cc1`, the survival was inactive: 108%. To `Cc1cc(C)nc(Nc2ccc(S(N)(=O)=O)cc2)n1` belongs inactive: 119%. As for `CN(C(=O)c1cc2c(=O)n3ccccc3nc2n1C)c1ccccc1`, the survival is inactive: 82%.

For the compound `Cn1cc(CCCC(=O)NCc2ccccc2Cl)c2ccccc21`, the survival is inactive: 80%.

For `CCOC(=O)c1c(NC(=O)CSc2nc(-c3ccccc3)cc(C(F)(F)F)n2)sc(C)c1C`, the survival is inactive: 66%. `O=C1CC(=O)SC(c2ccccc2)=N1`: the survival was inactive: 105%. To `CC(=O)Nc1nnc(SCc2cc(=O)c3cccc(Cl)c3[nH]2)s1` belongs inactive: 89%. On to `CCOc1ccc(CCNC(=O)Cn2nnc(-c3ccc(C(F)(F)F)cc3)n2)cc1OCC`, for which the survival was inactive: 104%.

With `O=C(CCC1CCCC1)NCc1ccccn1`, the survival is inactive: 111%. To `CC(=O)N1c2ccc(S(=O)(=O)N3CCCCCC3)cc2CC1C(=O)NCc1ccccc1F` (configuration not stated) belongs inactive: 131%; to `CCOc1ccc(OCC)c(Nc2cc(C)nc3nc(-c4ccco4)nn23)c1`, active: -1%. Consider `O=C(c1ccc([N+](=O)[O-])cc1)N1CCN(c2ccc(Nc3ccccc3)nn2)CC1`, for which the survival was inactive: 51%. For the compound `CCOc1ccc(CCNC(=O)CN2C(=O)c3cccnc3Oc3ccc(Cl)cc32)cc1`, the survival was inactive: 71%. As to `O=C(CSc1nnc(Cc2ccccc2)o1)N(c1ccccc1)c1ccccc1`, the survival was inactive: 99%. To `Cc1ccc(CNc2ccc(-c3nc(-c4ccccn4)no3)cc2[N+](=O)[O-])cc1` belongs inactive: 124%; to `CCCCN(CCCC)CCNC(=O)c1cn(C)c2ccc(S(=O)(=O)N3CCCC3)cc2c1=O`, inactive: 164%. `CCOC(=O)c1c(S(=O)(=O)N2CCC(C(=O)Nc3ccc(OCC)cc3)CC2)c(C)n(C)c1C`: the survival is inactive: 125%. With `CCc1ccc(C2c3c(-c4cc(C)ccc4O)n[nH]c3C(=O)N2Cc2cccnc2)cc1` (configuration not stated), the survival is inactive: 74%. To `Cc1ccc(OCc2nc(-c3ccc(C(=O)N4CCN(c5ccccc5)CC4)cc3)oc2C)cc1` belongs inactive: 87%. Turning to `O=C(NCc1ccccc1Cl)c1ccc(Nc2nc3ccccc3n3nnnc23)cc1`, the survival was inactive: 86%. `COc1ccc(OC)c(NC(=O)N2c3ccccc3Sc3ccccc32)c1`: the survival is inactive: 19%.
